Each structure is given as a SMILES string. The whole screen tested about 50,000 compounds, of which about 800 (1.6%) showed an effect of 50% or more. Some of the results follow.

In the test the target is Bcl-2-like protein 10 (Homo sapiens) (UniProt Q9HD36). Put plainly: Phenotype converters, Bcl-B/TR3 peptide binding displacement, primary biochemical FP (AID 1240).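 Also: 0% = Bcl-B with tracer peptide and DMSO and 100% = tracer peptide lacking Bcl-B.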 As to conditions: GST-Bcl-B / FITC-TR3 peptide fluorescence polarization; stronger effect = higher value; compound at 3.75 mg/L. For orientation: Polarisation of emitted light reports the rotation of a fluorescent probe.
Sequence of UniProt Q9HD36 (Q9HD36 whole entry, looked up): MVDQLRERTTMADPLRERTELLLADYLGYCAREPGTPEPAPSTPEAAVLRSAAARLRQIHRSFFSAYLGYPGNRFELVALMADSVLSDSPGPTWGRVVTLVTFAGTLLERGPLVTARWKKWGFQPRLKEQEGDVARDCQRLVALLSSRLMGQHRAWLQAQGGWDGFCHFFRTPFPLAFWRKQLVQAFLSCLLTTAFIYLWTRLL
As to `Cn1ccc(=O)c2cc(Br)ccc21`, the displacement is 11.9%.
`COc1ccc(CCNC(=O)C(=O)NCc2ccncc2)cc1`: the displacement worked out at 11.7%.
Consider `Cc1ccc2nc(-c3ccc(NC(=O)COc4ccc([N+](=O)[O-])cc4)cc3)sc2c1`, for which the displacement is 6.3%.
Regarding `O=C1c2ccc(-c3ccc4c(c3)C(=O)N(c3ccccn3)C4=O)cc2C(=O)N1c1ccccn1`, the displacement was 3.9%.
In the case of `C/C(=N\N1CCN(Cc2cccc3ccccc23)CC1)c1cccs1`, the displacement was -7.4%.
In the case of `CCOc1ccccc1NC(=O)COc1c(C)cc(C)cc1C` it was 10.7%; in that of `O=C1CC(c2ccccc2)CC2=C1C(c1ccc([N+](=O)[O-])cc1)Nc1ccc(C(=O)c3ccccc3)cc1N2` (stereo not drawn), 7.7%.
In the case of `COc1ccc(-n2nc3cc(C)c(NC(=O)COc4ccc(Cl)cc4Cl)cc3n2)cc1` it was 2.4%; in that of `c1ccc(CNc2ccc(-c3nc4ccccc4o3)cc2)cc1`, 1.2%; in that of `COc1cccc(OCCOCCN2CCN(C)CC2)c1`, -3.9%.
As for `O=C(Nc1cccc([N+](=O)[O-])c1)c1ccc(-c2ccc(Cl)cc2)o1`, the displacement came out at 9%.
`CC(=O)NC1=NN(C(C)=O)C(c2ccccc2OC(C)=O)S1` (stereo not drawn): the displacement is -0.9%.
On to `Cc1ccc(C(=O)Nc2ccc(N3CCOCC3)cc2)cc1C`, for which the displacement was determined as 0.3%.
Take `COC(=O)C1=C(C)N(Cc2ccccc2)C(=O)/C1=C\c1cccs1`: the displacement turned out to be 6.6%.
In the case of `COC(=O)c1c(C)oc2ccc(OC(=O)c3c(C)oc4ccc(OC(C)=O)cc34)cc12`, the displacement stood at 11.7%.
The same measure for `COC(=O)C1=C(C)N(C)C(C)=C(C(=O)OC)C1c1ccccc1Cl`: -4.2%; for `COC(=O)/C(=C/C(=O)c1ccc(C)cc1)Nc1ccc(Br)cc1`: -4.8%.
Turning to `O=c1cnnc(N/N=C/c2ccccc2Br)[nH]1`, the displacement was -12.1%.
For `CCOc1ccc(S(=O)(=O)N(CC(=O)Nc2ccc(OC)cc2OC)c2ccc(C)cc2)cc1`, the displacement was -6%.
Consider `Cn1c(=O)c([N+](=O)[O-])c(NCC2CCCO2)c2ccccc21` (stereo not drawn), for which the displacement was -10.3%.
Regarding `COc1ccc(-c2cc(C(F)(F)F)n3ncc(C(=O)N4CCOCC4)c3n2)cc1OC`, the displacement amounted to 5.2%.
Take `Cc1cc(Cl)ccc1OCC(=O)O/N=C(\N)c1ccc(Br)cc1`: the displacement was -8.2%.
The same measure for `COc1ccc(OCCC(=O)c2ccc(OC)c(OC)c2)cc1`: 9.8%; for `COCCOC(=O)c1ccc(NC(=O)c2ccccc2CCc2ccccc2)cc1`: 7.1%.
The same measure for `CCc1ccccc1N=CC1=C(O)CC(c2ccccc2)CC1=O` (stereo not drawn): 13.6%; for `CS(=O)(=O)N(Cc1ccc(Cl)cc1)c1ccc(C(=O)N2CCCC2)cc1`: 9.7%.
For the compound `CCOC(=O)c1c(C)oc2cc(Br)c(O)c(CN(C)C)c12`, the displacement stood at 13.6%.
As to `COc1ccc(C(N)=O)cc1NC(=O)COc1ccc(F)cc1`, the displacement came to 2.3%.
On to `COc1ccc(NC(=S)NC(=O)c2ccc(F)cc2)cc1`, for which the displacement stood at 9.1%.
In the case of `O=C(Nc1ccc(Cl)c([N+](=O)[O-])c1)c1ccc2c(c1)OCO2` it was -7.2%; in that of `COc1ccc(C(NC(=O)c2ccc(C)cc2)NC(=O)c2ccc(C)cc2)cc1OC`, -4.8%.
As for `O=S(=O)(Nc1ccc(Cl)c2cccnc12)c1ccccc1`, the displacement was 10.4%.
The same measure for `Cc1ccc([N+](=O)[O-])cc1NC(=O)COc1cccc(Cl)c1`: -5.6%; for `CCn1c2ccccc2c2cc(NS(=O)(=O)c3ccccc3[N+](=O)[O-])ccc21`: 1.4%; for `O=C(NCc1cccnc1)c1c(Cl)cccc1Cl`: 9.6%.
For `Cc1ccc(/C=C2/SC(=S)N(CC(=O)O)C2=O)cc1`, the displacement was -2.1%.
In the case of `COc1ccc(NC(=O)CN(CCc2ccccc2)S(=O)(=O)c2ccccc2)cc1Cl`, the displacement was 7.8%.
In the case of `COC(=O)c1ccc(/C=C2\C=C(c3ccc(Cl)cc3)OC2=O)cc1`, the displacement worked out at 1.9%.
For `COc1ccc(/C=C/C(=O)O)cc1S(=O)(=O)NCc1ccccc1`, the displacement stood at 7.2%.
As to `CC(C)(C)CC(C)(C)NC(=O)CSc1nc2ccccc2[nH]1`, the displacement is -15.4%.
For `COc1ccc(C2CC(c3ccc(C)cc3)=NN2C(C)=O)cc1` (stereo not drawn), the displacement was 13.5%.
With `Cc1cc(Cl)ccc1OCCCC(=O)NC1CCCCC1`, the displacement was -12.9%.
On to `O=C(O)c1cccc(NC2=C(Cl)C(=O)N(c3ccc(Cl)cc3)C2=O)c1`, for which the displacement stood at 32%.
In the case of `CC(C)N(C(=O)c1ccc(Cl)cc1Cl)C(C)C`, the displacement was -5.4%.
Turning to `N#C/C(=C\c1ccco1)c1nn(CCO)c(N)c1C#N`, the displacement was -47.1%.
On to `CSc1ccc(C2Nc3ccccc3NC3=C2C(=O)CC(C)(C)C3)cc1` (stereo not drawn), for which the displacement is 5.7%.
The same measure for `Cc1cc(OCC(=O)Oc2ccccc2)c([N+](=O)[O-])cc1Cl`: -6.8%; for `CC(C)c1ccc(/C=C2\SC(=S)NC2=O)cc1`: -7.7%; for `Cc1nc(-c2ccccc2)sc1C(=O)Nc1ccc(Br)cc1`: 11.6%.
Take `O=C(Nc1cccc(O)c1)c1cc2nc(-c3ccc(F)cc3)cc(C(F)(F)F)n2n1`: the displacement came to 1.7%.
The same measure for `CCN(c1ccccc1C(=O)O)S(=O)(=O)/C=C/c1ccccc1`: 6.6%; for `O=C(Nc1cccc(C(F)(F)F)c1)/C(=C/c1cccnc1)NC(=O)c1cccc(Br)c1`: -7%; for `Nc1ccccc1C(=O)N1CCN(c2ccc(F)cc2)CC1`: -10.4%.
Consider `CN(C)c1ccc(C2/C(=C(\O)c3ccc(Cl)cc3)C(=O)C(=O)N2CCCCCC(=O)O)cc1` (stereo not drawn), for which the displacement was -10%.
As for `CCOc1cccc(/C=N\NC(=O)c2cnccn2)c1O`, the displacement was -26.1%.
As for `COc1ccc(/C=C/C(=O)Nc2nc3ccccc3s2)cc1S(=O)(=O)N1CCCCC1`, the displacement is -10.3%.
Consider `COc1ccc(/C(O)=C2\C(=O)C(=O)N(CCc3ccccc3)C2c2ccc(C)cc2)cc1` (stereo not drawn), for which the displacement was found to be 8.4%.
The same measure for `COc1ccc(CC(=O)Nc2ccc(NC(=O)c3ccc(C(C)(C)C)cc3)cc2)cc1OC`: 7.2%.
For `CCOC(=O)c1c(N)sc(C(=O)Nc2ccc(Cl)cc2)c1C`, the displacement came out at 40.1%.
On to `CCOC(=O)CSc1nc2sc3c(c2c(=O)n1Cc1ccccc1)CCc1ccccc1-3`, for which the displacement was -3.7%.
In the case of `O=C1CSC2(C(=O)Nc3ccccc32)N1c1cccc(Cl)c1` (stereo not drawn) it was 14.1%; in that of `O=C(CSc1nnc(-c2ccncc2)n1-c1ccccc1)c1ccc([N+](=O)[O-])cc1`, 5.9%.
As for `O=C1OC(c2ccccc2Br)=N/C1=C\c1cccnc1`, the displacement was determined as 4.7%.
With `S=C(Nc1ccccc1)N1CCc2ccccc21`, the displacement is -4.7%.
Turning to `CC(=O)c1ccc(N2C(=O)CC(SC(=NCCc3ccccc3)Nc3ccc(F)cc3)C2=O)cc1` (stereo not drawn), the displacement is -8%.
With `COc1ccc(C2/C(=C(/O)c3ccccc3)C(=O)C(=O)N2c2cccc([N+](=O)[O-])c2)c(OC)c1` (stereo not drawn), the displacement is -0.7%.
As for `COc1c(Br)cc(Br)cc1/C=N/NC(=O)COc1ccccc1[N+](=O)[O-]`, the displacement is 8.4%.
As for `Cc1cccc(N2C(=O)NC(=O)/C(=C/c3ccc(Cl)c(Cl)c3)C2=O)c1`, the displacement is -18.1%.
As to `O=C1CCCC2=C1C(c1cccc([N+](=O)[O-])c1)Nc1ccccc1N2` (stereo not drawn), the displacement worked out at 0.9%.
Turning to `CC(C)c1ccc(/C=C/C(=O)N2CCN(c3ccc(F)cc3)CC2)cc1`, the displacement was found to be 9.6%.
Take `Cc1ccc(-c2cc(NC(=O)c3ccncc3)n[nH]2)cc1`: the displacement was 6.7%.
For `Cc1ccc(N2C(=O)C(Cl)=C(N3CCN(c4ccccc4)CC3)C2=O)c(C)c1`, the displacement turned out to be 8.6%.
Turning to `Cc1cc(C)cc(N2C(=O)NC(=O)/C(=C\c3cc(Cl)c(OCC(=O)O)c(Cl)c3)C2=O)c1`, the displacement is -13.5%.
With `CCCC(=O)Nc1ccc(NC(=O)c2cccc3c(Br)cccc23)cc1`, the displacement was 6.4%.
Consider `Oc1ccc2ccccc2c1C1NN=C(c2ccccc2)S1` (stereo not drawn), for which the displacement was -7.7%.
The same measure for `Cc1nc2ccccc2n1C1CC(=O)N(c2ccc(Br)cc2)C1=O` (stereo not drawn): -4.7%.
`c1ccc(Nc2nc3c(s2)CCc2ccccc2-3)cc1`: the displacement came to 28.6%.
In the case of `COc1cccc(OCCNc2cc(Cl)ccc2[N+](=O)[O-])c1`, the displacement was 15%.
As to `CSc1n[nH]c(NC(=O)c2cc(F)c(F)c(F)c2F)n1`, the displacement was -8.5%.
As for `O=c1oc2cc(O)c(Cl)cc2c2c1CCCC2`, the displacement is 3.9%.
In the case of `Cc1ccc(C(=O)NNC(=O)C2CCCO2)cc1` (stereo not drawn) it was -13.5%; in that of `O=C1c2ccccc2C(=O)c2c1cc(Cl)cc2N1CCCCC1`, 2.8%; in that of `O=C(c1cc(-c2ccccc2)nc2ccccc12)N1CCOCC1`, 4.5%.
In the case of `CN(C)CCn1c2ccccc2c2nc3ccc([N+](=O)[O-])cc3cc21`, the displacement came to 22.9%.
Regarding `O=C(NCc1ccco1)c1ccc(-c2ccccc2)cc1`, the displacement is 1.2%.
As for `CCN(CC)CCCOc1c(Cl)cccc1Cl`, the displacement came to 1%.
In the case of `CCC(=O)Nc1sc2c(c1C(=O)Nc1ccc(OC)cc1)CCCC2`, the displacement is 2%.
As for `O=C(NCC1c2ccccc2CCN1C(=O)c1ccccc1)c1ccccc1` (stereo not drawn), the displacement was -1.9%.
As for `O=C(O)c1cc(-c2ccccc2Cl)nc2ccccc12`, the displacement was 0.7%.
Take `COc1cccc(OCCCCOc2ncnc3ccccc23)c1`: the displacement was -10%.
In the case of `O=C1c2ccc(S(=O)(=O)c3ccc4c(c3)C(=O)N(Cc3cccnc3)C4=O)cc2C(=O)N1Cc1cccnc1`, the displacement came to 9.4%.
Turning to `O=C1/C(=C\c2cccnc2)CN(Cc2ccccc2)C/C1=C\c1cccnc1`, the displacement was 1.8%.
On to `Cc1ccc([N+](=O)[O-])cc1Cc1c(F)cc(F)cc1F`, for which the displacement is 2.2%.
In the case of `O=C(N/N=C/c1cc(Cl)ccc1OCc1c(F)cccc1Cl)c1cccnc1` it was -2%.
In the case of `O=C(Nc1ccc(C(F)(F)F)cc1)c1ccc2c(c1)C(=O)N(CC1CCCO1)C2=O` (stereo not drawn) it was -0.2%; in that of `C=CCc1c(C)nc(-c2ccccc2)nc1NN`, -36.3%.
For the compound `COc1ccc(-c2nc3cc(NC(=O)COc4ccccc4[N+](=O)[O-])ccc3o2)cc1Cl`, the displacement is -8.2%.
Turning to `O=C1NC(=S)S/C1=C\c1ccccc1[N+](=O)[O-]`, the displacement was -4%.
Regarding `COc1c(Cl)cc(C(=O)Nc2cc(C)ccn2)cc1Cl`, the displacement is -5.8%.
In the case of `O=C(CCCN1C(=O)c2cccc3cccc(c23)C1=O)N1CCN(c2ccccc2)CC1` it was 8.3%; in that of `CCN1C(=O)/C(=C\c2cc(Br)c(OCc3ccccc3F)c(OC)c2)SC1=S`, 22.5%; in that of `COc1ccc([N+](=O)[O-])cc1NCc1cccnc1`, 3.1%.
On to `COc1cccc2c1NC(c1ccc(F)cc1)C1CC=CC21` (stereo not drawn), for which the displacement was 17.6%.
In the case of `Nc1nnc(SCC(=O)N2c3ccccc3CCc3ccccc32)s1` it was 8.8%.
Turning to `CCOc1ccccc1NC1=C(Cl)C(=O)N(c2ccc(Br)cc2)C1=O`, the displacement was determined as 9.1%.
For the compound `Cc1ccc(C(=O)Nc2ccc(C(=O)OCC(C)C)cc2)cc1[N+](=O)[O-]`, the displacement is -5.3%.
Take `Cc1onc(-c2c(Cl)cccc2Cl)c1C(=O)N1CCCC1`: the displacement came out at 11.7%.
On to `C=COCCNC(=O)C(=O)Nc1ccc(CC)cc1`, for which the displacement turned out to be 11.9%.

The values are drawn from PubChem BioAssay AID1240 (Sanford-Burnham Center for Chemical Genomics, 2008).
